Changes are numbered by the printed parent chain; changes in the protein carry UniProt numbers. Some of the results follow.

Experimental findings from article PMC9911399, “Two distinct binding modes provide the RNA-binding protein RbFox with extraordinary sequence specificity” are described below.

T1: RBFOX1 RRM (Homo sapiens, UniProt Q9NWB1 109-208)
T1 sequence: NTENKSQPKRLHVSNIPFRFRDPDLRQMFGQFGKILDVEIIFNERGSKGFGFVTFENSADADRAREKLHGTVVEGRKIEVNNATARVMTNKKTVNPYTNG

B1: UAUCGGU (DNA:RNA)
RNA: GGGAGACCGGAAUUCAGAUUGUCCUAUCGGUUUAAAUCCCGUCGUAGCCACCA
DNA 1: CAATCTGAATTCCGGTCTCCC
DNA 2: TGGTGGCTACGACGGGATT
B2: CUUUAGU (DNA:RNA)
RNA: B1 RNA with U25C, A26U, C28U, G29A
DNA 1: CAATCTGAATTCCGGTCTCCC
DNA 2: TGGTGGCTACGACGGGATT
B3: GGUACCU (DNA:RNA)
RNA: B1 RNA with U25G, A26G, C28A, G29C, G30C
DNA 1: CAATCTGAATTCCGGTCTCCC
DNA 2: TGGTGGCTACGACGGGATT
B4: CGCUGUC (DNA:RNA)
RNA: B1 RNA with U25C, A26G, U27C, C28U, G30U, U31C
DNA 1: CAATCTGAATTCCGGTCTCCC
DNA 2: TGGTGGCTACGACGGGATT
B5: UUAGUGU (DNA:RNA)
RNA: B1 RNA with A26U, U27A, C28G, G29U
DNA 1: CAATCTGAATTCCGGTCTCCC
DNA 2: TGGTGGCTACGACGGGATT
B6: AGGAGUU (DNA:RNA)
RNA: B1 RNA with U25A, A26G, U27G, C28A, G30U
DNA 1: CAATCTGAATTCCGGTCTCCC
DNA 2: TGGTGGCTACGACGGGATT
B7: CUAAUCG (DNA:RNA)
RNA: GGGAGACCGGAAUUCAGAUUGUCCCUAAUCGUUAAAUCCCGUCGUAGCCACCA
DNA 1: CAATCTGAATTCCGGTCTCCC
DNA 2: TGGTGGCTACGACGGGATT
B8: GCCGCCU (DNA:RNA)
RNA: B7 RNA with C25G, U26C, A27C, A28G, U29C, G31U
DNA 1: CAATCTGAATTCCGGTCTCCC
DNA 2: TGGTGGCTACGACGGGATT
B9: UGACGCG (DNA:RNA)
RNA: B7 RNA with C25U, U26G, A28C, U29G
DNA 1: CAATCTGAATTCCGGTCTCCC
DNA 2: TGGTGGCTACGACGGGATT
B10: CGGUAAA (DNA:RNA)
RNA: B7 RNA with U26G, A27G, A28U, U29A, C30A, G31A
DNA 1: CAATCTGAATTCCGGTCTCCC
DNA 2: TGGTGGCTACGACGGGATT
B11: AGAUACA (DNA:RNA)
RNA: B7 RNA with C25A, U26G, A28U, U29A, G31A
DNA 1: CAATCTGAATTCCGGTCTCCC
DNA 2: TGGTGGCTACGACGGGATT
B12: AUAUUAG (DNA:RNA)
RNA: B7 RNA with C25A, A28U, C30A
DNA 1: CAATCTGAATTCCGGTCTCCC
DNA 2: TGGTGGCTACGACGGGATT
B13: CUCACGC (DNA:RNA)
RNA: B7 RNA with A27C, U29C, C30G, G31C
DNA 1: CAATCTGAATTCCGGTCTCCC
DNA 2: TGGTGGCTACGACGGGATT
B14: GUAGAUU (DNA:RNA)
RNA: B7 RNA with C25G, A28G, U29A, C30U, G31U
DNA 1: CAATCTGAATTCCGGTCTCCC
DNA 2: TGGTGGCTACGACGGGATT
B15: AGGUCGC (DNA:RNA)
RNA: B1 RNA with U25A, A26G, U27G, C28U, G29C, U31C
DNA 1: CAATCTGAATTCCGGTCTCCC
DNA 2: TGGTGGCTACGACGGGATT
B16: UAAUCCA (DNA:RNA)
RNA: B7 RNA with C25U, U26A, A28U, U29C, G31A
DNA 1: CAATCTGAATTCCGGTCTCCC
DNA 2: TGGTGGCTACGACGGGATT
B17: UAAGCCA (DNA:RNA)
RNA: B7 RNA with C25U, U26A, A28G, U29C, G31A
DNA 1: CAATCTGAATTCCGGTCTCCC
DNA 2: TGGTGGCTACGACGGGATT
B18: GACAUCG (DNA:RNA)
RNA: B7 RNA with C25G, U26A, A27C
DNA 1: CAATCTGAATTCCGGTCTCCC
DNA 2: TGGTGGCTACGACGGGATT
B19: AGUUACU (DNA:RNA)
RNA: B1 RNA with U25A, A26G, C28U, G29A, G30C
DNA 1: CAATCTGAATTCCGGTCTCCC
DNA 2: TGGTGGCTACGACGGGATT
B20: GGAUAAC (DNA:RNA)
RNA: B7 RNA with C25G, U26G, A28U, U29A, C30A, G31C
DNA 1: CAATCTGAATTCCGGTCTCCC
DNA 2: TGGTGGCTACGACGGGATT
B21: CAUAACU (DNA:RNA)
RNA: B7 RNA with U26A, A27U, U29A, G31U
DNA 1: CAATCTGAATTCCGGTCTCCC
DNA 2: TGGTGGCTACGACGGGATT
B22: GAAGCUC (DNA:RNA)
RNA: B7 RNA with C25G, U26A, A28G, U29C, C30U, G31C
DNA 1: CAATCTGAATTCCGGTCTCCC
DNA 2: TGGTGGCTACGACGGGATT
B23: GACAAAA (DNA:RNA)
RNA: B7 RNA with C25G, U26A, A27C, U29A, C30A, G31A
DNA 1: CAATCTGAATTCCGGTCTCCC
DNA 2: TGGTGGCTACGACGGGATT
B24: GCAACGC (DNA:RNA)
RNA: B7 RNA with C25G, U26C, U29C, C30G, G31C
DNA 1: CAATCTGAATTCCGGTCTCCC
DNA 2: TGGTGGCTACGACGGGATT
B25: CGGCUUU (DNA:RNA)
RNA: B7 RNA with U26G, A27G, A28C, C30U, G31U
DNA 1: CAATCTGAATTCCGGTCTCCC
DNA 2: TGGTGGCTACGACGGGATT
B26: CAUUGAU (DNA:RNA)
RNA: B1 RNA with U25C, C28U, G30A
DNA 1: CAATCTGAATTCCGGTCTCCC
DNA 2: TGGTGGCTACGACGGGATT
B27: CCAAUGG (DNA:RNA)
RNA: B7 RNA with U26C, C30G
DNA 1: CAATCTGAATTCCGGTCTCCC
DNA 2: TGGTGGCTACGACGGGATT
B28: CACGCCC (DNA:RNA)
RNA: B7 RNA with U26A, A27C, A28G, U29C, G31C
DNA 1: CAATCTGAATTCCGGTCTCCC
DNA 2: TGGTGGCTACGACGGGATT
B29: AGGCGAA (DNA:RNA)
RNA: B1 RNA with U25A, A26G, U27G, G30A, U31A
DNA 1: CAATCTGAATTCCGGTCTCCC
DNA 2: TGGTGGCTACGACGGGATT
B30: UACCUUA (DNA:RNA)
RNA: B1 RNA with U27C, G29U, G30U, U31A
DNA 1: CAATCTGAATTCCGGTCTCCC
DNA 2: TGGTGGCTACGACGGGATT
B31: CCCGGGA (DNA:RNA)
RNA: B1 RNA with U25C, A26C, U27C, C28G, U31A
DNA 1: CAATCTGAATTCCGGTCTCCC
DNA 2: TGGTGGCTACGACGGGATT

In this assay the target is T1, RBFOX1 RRM. Briefly: EMSA; HiTS-Eq, 1 nM pool, 10 min; buffer printed only for the single-RNA assays: 10 mM Tris pH 7.5, 150 mM NaCl, 3.4 mM EDTA, 0.001% NP-40, 30 C. As to conditions: tags: His6 N-terminal (pET28a); label: 5' 32P. Put shortly:
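Purified RbFox RRM (wild type or mutant) was equilibrated for 10 min in 50 µL with 1 nM of a 5′-radiolabelled pool of RNA with 7 randomized nucleotides, its flanks annealed to DNA oligonucleotides, across increasing protein concentrations. Free RNA was separated by 8% native PAGE, excised, reverse-transcribed, PCR-barcoded and sequenced on an Illumina HiSeq 2500. Relative association constants came from read-count changes of each variant against the control reaction, normalised to the cognate motif.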
For orientation: A gel shift assay detects complexes by their altered migration in electrophoresis.
B1: the binding signal was 0.0132 KA relative to UGCAUGU.
With B2, the binding signal was 0.0114 KA relative to UGCAUGU.
Regarding B3, the binding signal was 0.01 KA relative to UGCAUGU.
As for B4, the binding signal is 0.0145 KA relative to UGCAUGU.
Regarding B5, the binding signal is 0.0175 KA relative to UGCAUGU.
B6: the binding signal was 0.0159 KA relative to UGCAUGU.
On to B7, for which the binding signal is 0.00688 KA relative to UGCAUGU.
Regarding B8, the binding signal is 0.0124 KA relative to UGCAUGU.
For B9, the binding signal was 0.0215 KA relative to UGCAUGU.
For B10 the value was 0.00497 KA relative to UGCAUGU; for B11, 0.00472 KA relative to UGCAUGU; for B12, 0.00629 KA relative to UGCAUGU.
Regarding B13, the binding signal is 0.00572 KA relative to UGCAUGU.
For B14 the value was 0.0081 KA relative to UGCAUGU; for B15, 0.0178 KA relative to UGCAUGU.
Under B16 stands 0.00387 KA relative to UGCAUGU.
For B17, the binding signal is 0.00675 KA relative to UGCAUGU.
Under B18 stands 0.00949 KA relative to UGCAUGU.
Under B19 stands 0.00822 KA relative to UGCAUGU; under B20, 0.0108 KA relative to UGCAUGU.
For B21, the binding signal is 0.00164 KA relative to UGCAUGU.
Under B22 stands 0.0103 KA relative to UGCAUGU; under B23, 0.0028 KA relative to UGCAUGU; under B24, 0.00878 KA relative to UGCAUGU.
As to B25, the binding signal is 0.0187 KA relative to UGCAUGU.
Turning to B26, the binding signal is 0.011 KA relative to UGCAUGU.
For B27 the value was 0.00975 KA relative to UGCAUGU; for B28, 0.00179 KA relative to UGCAUGU.
For B29 the value was 0.00756 KA relative to UGCAUGU; for B30, 0.00279 KA relative to UGCAUGU.
For B31, the binding signal was 0.0106 KA relative to UGCAUGU.
